# Reference: paper PMC6919601, “Identification of Plasmodium dipeptidyl aminopeptidase allosteric inhibitors by high throughput screening” (PLoS ONE, 2019)
# The whole screen tested about 110,000 compounds, of which about 230 (0.21%) showed an effect of 50% or more. Some of the results follow.
# Biological target: DPAP1 (Plasmodium falciparum, UniProt Q8IIJ9)
# Test: primary screen, percent inhibition; read by cleavage of a fluorogenic dipeptide substrate; higher = more effect of the substance
# Set-up: species or system P. falciparum D10 trophozoite lysates; single well
# 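Further: 30 min substrate incubation versus DMSO and 10 µM JCP410 controls.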
# DPAP1, sequence (Q8IIJ9 whole entry, looked up): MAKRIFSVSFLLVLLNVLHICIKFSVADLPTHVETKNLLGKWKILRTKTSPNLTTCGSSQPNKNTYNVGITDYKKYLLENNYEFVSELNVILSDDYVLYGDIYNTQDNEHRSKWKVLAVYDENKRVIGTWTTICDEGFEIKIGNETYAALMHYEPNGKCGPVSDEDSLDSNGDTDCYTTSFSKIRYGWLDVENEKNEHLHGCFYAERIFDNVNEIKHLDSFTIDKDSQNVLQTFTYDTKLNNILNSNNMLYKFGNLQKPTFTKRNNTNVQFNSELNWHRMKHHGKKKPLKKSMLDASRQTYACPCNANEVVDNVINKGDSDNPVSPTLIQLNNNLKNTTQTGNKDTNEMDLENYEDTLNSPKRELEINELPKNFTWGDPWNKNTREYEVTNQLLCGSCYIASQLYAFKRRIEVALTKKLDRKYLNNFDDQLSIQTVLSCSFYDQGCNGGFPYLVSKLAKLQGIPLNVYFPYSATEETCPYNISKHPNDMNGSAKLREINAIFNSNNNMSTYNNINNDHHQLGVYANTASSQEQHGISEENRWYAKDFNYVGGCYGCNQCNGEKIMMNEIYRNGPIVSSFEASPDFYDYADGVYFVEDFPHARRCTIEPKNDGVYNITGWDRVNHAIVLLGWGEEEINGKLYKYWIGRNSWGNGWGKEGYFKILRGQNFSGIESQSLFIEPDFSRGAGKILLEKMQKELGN
row,Compound,% Inhibition @ 10 uM [%]
1,COc1cc(C/N=c2/c(-c3cc(C)c(C)cc3C)c(O)c2=O)cc(OC)c1OC,-3.05
2,Cn1c(-[n+]2ccccc2)c(/C=N/NC(N)=S)sc1=O,1.91
3,CC(C(=O)N(Cc1ccccc1)Cc1ccccc1)N1C(=O)c2ccccc2C1=O (stereo not drawn),2.26
4,CCOCCO/C(O)=C1\C(C)=NC2=C(C(=O)CC(C)(C)C2)C1c1cccc(Cl)c1Cl (stereo not drawn),-4.77
5,Cc1ccc(NC(=O)/C=C/c2ccccc2Cl)c(C)c1,-0.351
6,Cc1ccc(N2N=C(c3ccccc3)CC2c2ccccc2)cc1 (stereo not drawn),-5.11
7,CCOC(=O)C1=C(C)NC(=O)NC1c1ccc(-c2cc(C(F)(F)F)ccc2Cl)o1 (stereo not drawn),-6.68
8,O=C(NCCn1ccc2ccccc21)c1ccc(C(F)(F)F)cc1,-7.51
9,CCN(CC)CCNC(=O)C1=C(C)C(=O)OC12CCCCC2,-1.89
10,Cc1ccc(S(=O)(=O)N2CC=C(C(=O)NCCC3=CCCCC3)CC2)cc1,1.27
11,CC1=C(C(=O)N2CCC(N3CCCCC3)CC2)C2(CCCCC2)OC1=O,0.745
12,COCCNC(=O)c1ccc(-c2ccccc2)s1,-0.447
13,CCc1ccccc1NC(=O)C(CC)Oc1ccccc1 (stereo not drawn),5.31
14,O=c1c2ccccc2ncn1Cc1ccccc1,3.99
15,COc1cc(C(=O)Nc2ccc(-c3nc4ncccc4o3)cc2)cc(OC)c1OC,0.992
16,Cc1nc(C)c(-c2csc(Nc3ncccn3)n2)s1,-0.711
17,CCOc1cc(C2C3=C(CCCC3=O)OC3=C2C(=O)CCC3)cc(Br)c1O,4.03
18,CCOCc1c(SC)sc(SC)c1COCC,-0.0372
19,COc1ccc(CNc2nc(-c3cccnc3)nn2C(=O)COc2ccc(Cl)cc2)cc1,-1.15
20,CCOc1ccc(/C=C2\CN(C(C)C)CC3=C2OC(N)=C(C#N)C3c2ccc(OCC)cc2)cc1 (stereo not drawn),0.746
21,O=C(NC1CCCC1)c1cnn2c(C(F)(F)F)cc(-c3ccc(Br)cc3)nc12,-3.13

row,Compound,% Inhibition @ 10 uM [%]
1,Cc1nc2cc(Cl)ccc2n1Cc1ccccc1,3.16
2,CCOC(=O)c1c(NC(C)=O)[nH]c2ccc(OC)cc12,1.02
3,COc1cccc(C2CC(c3cccs3)=NN2c2ccc(F)cc2)c1OC (stereo not drawn),0.219
4,Cc1ccc(N2CNC(=O)c3c(C)cc(C)nc32)cc1,0.528
5,Cc1ccc(-n2nc(C)c3c2OC(N)=C(C#N)C3c2ccccc2F)cc1 (stereo not drawn),-4.4
6,Cc1ccc(C)n1-c1nnc(N2CCC(C(=O)NCC3CCCO3)CC2)s1 (stereo not drawn),1.15
7,COc1ccc2c(c1)CCc1c(C(=O)N3CCN(Cc4ccccc4)CC3)noc1-2,-5.09
8,O=C(Nc1nc(-c2ccc3ccccc3c2)cs1)C1CC1,-0.46
9,Cc1nc2sc(-c3nc4ccccc4[nH]3)c(N)c2c(C)c1Cl,-0.891
10,CCC(C)NC(=O)c1cnn2c(C(F)(F)F)cc(-c3ccc(F)cc3)nc12 (stereo not drawn),4.11
11,CCn1c(CN2CCCCC2C)nc2c1c(=O)n(C)c(=O)n2C (stereo not drawn),-0.719
12,CO/C(O)=C1\C(C)=NC(C)=C(C(=O)OCCSc2ccccc2)C1C (stereo not drawn),-2.42
13,CCC(Oc1ccccc1)C(=O)Nc1nnc(S(=O)(=O)N2CCOCC2)s1 (stereo not drawn),4.86
14,O=C1CC(c2cccc(F)c2)c2c(O)nc3ccccc3c2O1 (stereo not drawn),0.895
15,Cc1ccc(CCNC(=O)CN2N=C(c3ccccc3)CCC2=O)cc1,-1.21
16,Nc1nc2ccccc2n1CCCOc1ccc(F)cc1,-2.91
17,Clc1ccc(-c2nc(-c3cccnc3)no2)cc1Cl,-3.06
18,COc1ccc(C2C3CCc4ccc(OC)cc4C3=NN2C(C)=O)cc1 (stereo not drawn),-3.55
19,CC1(C(=O)O)CCC(c2nc3ccccc3[nH]2)C1(C)C (stereo not drawn),4.42
20,CC(C)(C)OC(=O)N[C@@H](Cc1ccc(-c2ccccc2)s1)C(=O)NCC#N,6.03
21,CCOc1ccc(N2C(=O)CC(NC3CCC(C)CC3)C2=O)cc1 (stereo not drawn),0.749

row,Compound,% Inhibition @ 10 uM [%]
1,CC1(C)Cc2c(C#N)c(NCCN3CCOCC3)nc(-c3ccco3)c2CO1,-3.13
2,Cc1ccc(CN(C)S(=O)(=O)c2c(C)noc2/C=C/N(C)C)cc1,3.07
3,Cn1cc([N+](=O)[O-])c(C(=O)Nc2ccc(Cl)cc2Cl)n1,2.17
4,CN(c1ccc(C(=O)Nc2cccnc2)cc1)S(C)(=O)=O,-1.51
5,COc1ccc(CCNC(=O)C2CCC(Cn3c(=O)[nH]c4ccsc4c3=O)CC2)cc1OC (stereo not drawn),2.64
6,COc1cccc2c1OC(C(C)C)N1N=C(c3ccccc3O)CC21 (stereo not drawn),4.97
7,CC1=C(C(=O)OCCOc2ccccc2)C(c2ccc(Cl)c(Cl)c2)NC(=O)N1 (stereo not drawn),-2.87
8,Cc1ccc(Cn2c(C(=O)O)c(CNCCC3=CCCCC3)c3ccc(C)cc32)cc1,2.33
9,CS(=O)(=O)N1CCC(C(=O)Nc2ccc(Cl)cc2Cl)CC1,-2.21
10,CCCS(=O)(=O)N1CCC(C(=O)Nc2ccc(Br)cc2)CC1,-14
11,CCNc1nc2nc(O)c3c(c2s1)OC(N)=C(C#N)C3c1cccs1 (stereo not drawn),-2.83
12,CC(=O)c1ccc(N2C(=O)c3ccc(C(=O)c4ccccc4)cc3C2=O)cc1,-3.24
13,COc1cc(OC)cc(C(=O)Nc2ccccn2)c1,-3.92
14,CCOC(=O)N1CCN(C(=O)CSc2nnc(Cc3cccn3C)n2CCc2ccccc2)CC1,-2.19
15,COc1ccc2ncc(C(=O)c3ccccc3)c(N3CCC(C(N)=O)CC3)c2c1,-7.3
16,CCOC(=O)c1c(NC(=O)CSc2c[nH]c3ccccc23)sc2c1CCCC2,9.23
17,CSc1ncc(Cl)c(C(=O)Nc2cccnc2)n1,-4.64
18,O=C(Nc1ccc(CN2CCOCC2)cc1)c1cccc(F)c1,0.709
19,COc1ccc(C(=O)N(CCc2ccccc2)Cc2ccccc2)c(OC)n1,-6.91
20,CC1CN(C2CCC(c3ccccc3)CC2)CC(C)O1 (stereo not drawn),1.57
21,CCOc1cc(CNC2=NS(=O)(=O)C(c3ccc(C(C)C)cc3)=C2C)cc(OCC)c1OCC,-1.3
